Reference: ChEMBL document CHEMBL4888484, “Replenishing the malaria drug discovery pipeline: Screening and hit evaluation of the MMV Hit Generation Library 1 (HGL1) against asexual blood stage Plasmodium falciparum ,using a nano luciferase reporter read-out” (2022)
In all, about 150,000 compounds went through this assay and about 540 (0.36%) showed an effect of 50% or more. The list shows a part of the results.

These molecules were tested on Plasmodium falciparum (assay: Primary screen in NF54 nanoGlo assay, in single point, at 2uM, 72h; a lower Z score goes with more inhibition). Settings: timepoint 72 hour.
Assay type: functional, Erythrocyte
`C=C(C)COc1c(OC)cccc1-c1c(C#N)c(N)nc2c1COC2C` (configuration not stated) was tested, and the “% Inhibition” value was -5% and the Z score was 0.58.
With `CCOc1ccccc1CNC(=O)c1ccnc(-c2cccs2)c1` the “% Inhibition” value was -7% and the Z score was 0.97.
`N#CCC(=O)N1CC=C(C(F)(F)F)CC1` was tested, and the “% Inhibition” value was -7% and the Z score was 1.25.
For `Cc1ncsc1CCOc1cccc(CNC[C@H]2CCCO2)c1`, the “% Inhibition” value was 1% and the Z score was -0.16.
`COc1ccc(-c2c(C(=O)Nc3ccc(F)cc3F)nn3c(C)cc(=O)[nH]c23)cc1` was tested, and the “% Inhibition” value was 13% and the Z score was -1.54.
For `CC(C)(C)OC(=O)N1CC[C@H]1C(N)=NOCc1ncnn1CCF`, the “% Inhibition” value was -11% and the Z score was 1.54.
With `CS(=O)(=O)c1ccccc1N1CC(O)(c2ccc(F)cc2)C1` the “% Inhibition” value was -6% and the Z score was 0.86.
In the case of `CC1=C(C(=O)NCc2ccccc2)[C@H](c2ccc(C)cc2)n2nnnc2N1`, the “% Inhibition” value is reported as -3% and the Z score is reported as 0.4.
In the case of `CCN1CCN(C(=O)CO[C@H](c2ccccc2)C(F)(F)F)CC1=O`, the “% Inhibition” value is reported as -12% and the Z score is reported as 2.44.
With `C[C@@](CO)(NC(=O)Cc1cccc(F)c1F)C1CC1` the “% Inhibition” value was -6% and the Z score was 0.72.
In the case of `O=C(NCCS(=O)(=O)c1ccccc1F)NCc1ccco1`, the “% Inhibition” value is reported as 29% and the Z score is reported as -3.91.
`COc1ccc([C@H]2C[C@@H]2CC(=O)Nc2ncnn2-c2ccccc2)cc1` was tested, and the “% Inhibition” value was -6% and the Z score was 0.97.
For `O=C(CNC(=O)OCc1ccccc1)NCc1cccnc1-c1ccsc1`, the “% Inhibition” value was -9% and the Z score was 1.68.
For `O=C(NCc1ccco1)c1ccc(Br)o1`, the “% Inhibition” value was -17% and the Z score was 2.31.
With `CCC1CCC(N[C@H](c2c(C)nn(C)c2C)C(F)(F)F)CC1` (some centres not stated) the “% Inhibition” value was -11% and the Z score was 0.89.
`Cc1cc(N2CCC=C(c3ccncc3)C2)ccn1` was tested, and the “% Inhibition” value was -3% and the Z score was 0.51.
In the case of `CC=CC[C@@H](CO)NC(=O)CNC(=O)c1cccc(OC)c1`, the “% Inhibition” value is reported as -10% and the Z score is reported as 1.72.
`Cc1ccc2c(Nc3cc(F)ccc3F)c(C(=O)N3CCCC3)cnc2n1` was tested, and the “% Inhibition” value was 1% and the Z score was -0.07.
In the case of `Cc1ccnc(NCc2ccc(CN3CC[S+]([O-])CC3)cc2)n1`, the “% Inhibition” value is reported as 0% and the Z score is reported as -0.05.
With `CCOc1cc(-c2nnc(N)s2)ccc1OCc1nnc(N)s1` the “% Inhibition” value was -23% and the Z score was 2.28.
With `Cc1nnc(NCCc2nnc3ccccn23)c(C#N)c1C` the “% Inhibition” value was -17% and the Z score was 2.45.
With `CC(C)Cc1noc([C@H](C)NC(=O)c2cnn(Cc3ccccc3)c2)n1` the “% Inhibition” value was -1% and the Z score was 0.11.
`CC(CCS(C)(=O)=O)NC(=O)NCC(C)c1ccc(F)cc1F` (configuration not stated) was tested, and the “% Inhibition” value was 29% and the Z score was -3.86.
`CC(=O)c1cccc(C(=O)N2C[C@H]3CC[C@@H](C2)N(Cc2ccccn2)C3)c1` was tested, and the “% Inhibition” value was 2% and the Z score was -0.32.
For `c1cc(-c2nccn2Cc2nnc3n2CCC3)c2nonc2c1`, the “% Inhibition” value was -10% and the Z score was 1.26.
`O=C(OC1CCOCC1)N1CC[C@H](Oc2ncccn2)C1` was tested, and the “% Inhibition” value was -7% and the Z score was 1.39.
With `Cc1ccc(-c2nnc([C@H]3CCN(C4CCCCC4)C3)o2)cc1` the “% Inhibition” value was -10% and the Z score was 1.26.
In the case of `Cc1ccc(CCCN(C)C[C@H](O)CO)cc1`, the “% Inhibition” value is reported as -1% and the Z score is reported as 0.12.
For `CC(=O)Nc1nc2ccc(NC(=O)Nc3ccc(F)cc3)cc2s1`, the “% Inhibition” value was -4% and the Z score was 0.61.
For `C[C@@H](CCc1ccccc1F)C(=O)Nc1nncn1C`, the “% Inhibition” value was -15% and the Z score was 1.3.
With `CCn1cccc(CNCc2cccc(C3CC3)c2)c1=O` the “% Inhibition” value was -8% and the Z score was 1.52.
`COc1ccc(S(=O)(=O)[C@@H](CNC(=O)c2ccco2)c2cccnc2)cc1` was tested, and the “% Inhibition” value was -8% and the Z score was 1.53.
For `CCc1cc(C(=O)N[C@@H](C)c2ncc(C)o2)[nH]n1`, the “% Inhibition” value was 0% and the Z score was -0.05.
With `O=c1[nH]c2nc(NCCN3CCCC3)ncc2c(=O)n1Cc1ccccc1F` the “% Inhibition” value was -4% and the Z score was 0.81.
With `COC(=O)c1nc(-c2cnccn2)sc1-c1ccccc1` the “% Inhibition” value was 9% and the Z score was -1.48.
In the case of `Oc1ccc(-c2cc(-c3ccccc3)nc(N3CCOCC3)n2)cc1`, the “% Inhibition” value is reported as 8% and the Z score is reported as -1.08.
In the case of `COc1ccccc1CC(=O)N[C@H]1COCC[C@@H]1O`, the “% Inhibition” value is reported as -4% and the Z score is reported as 0.76.
For `c1coc(CNc2ccccc2-n2c(-c3ccco3)nc3ccccc32)c1`, the “% Inhibition” value was 8% and the Z score was -1.23.
For `Cc1cc(C)n(-c2nc3nonc3nc2Nc2ccc(C)c(C)c2)n1`, the “% Inhibition” value was 0% and the Z score was 0.09.
With `Cc1nn(C)c(C)c1C(=O)NC[C@@](O)(c1ccccc1)C1CCOCC1` the “% Inhibition” value was -11% and the Z score was 1.82.
For `COc1ccccc1CNC(=O)c1sc(Nc2ccc(F)cn2)nc1C`, the “% Inhibition” value was -12% and the Z score was 1.93.
For `CCOC(=O)C(=O)Nc1cccc(Cl)c1`, the “% Inhibition” value was -3% and the Z score was 0.35.
For `COC(=O)CN1C2CCC1CC(N(C)C(=O)c1ccccc1)C2` (configuration not stated), the “% Inhibition” value was 31% and the Z score was -3.92.
With `CC1CCC2(CC1)OC[C@H](CNS(=O)(=O)NCC(F)(F)F)O2` (some centres not stated) the “% Inhibition” value was -6% and the Z score was 0.81.
With `CC(C)(NC(=O)Nc1ccccc1N1CCCC1=O)C(=O)N1CCCC1` the “% Inhibition” value was -2% and the Z score was 0.24.
For `CNC(=O)[C@H]1CCN(c2ncc(F)c(OC)n2)C1`, the “% Inhibition” value was -10% and the Z score was 1.93.
For `CCCCc1c(C)nc(N)nc1NCCC(=O)N1CCCC1`, the “% Inhibition” value was -6% and the Z score was 0.74.
With `COc1ccc(OCc2cc(C(=O)N3CCN4CCC[C@H]4C3)n[nH]2)c(Cl)c1` the “% Inhibition” value was -30% and the Z score was 2.67.
`CC(C)Cn1cc(C(=O)Nc2cc(C(F)(F)F)n[nH]2)cn1` was tested, and the “% Inhibition” value was -4% and the Z score was 0.45.
With `O=C(NCCC(c1ccccc1)c1ccccc1)N1CCCC1` the “% Inhibition” value was -3% and the Z score was 0.28.
For `CCN1CCN(Cc2cccn2-c2nnc(N3CCC(C)CC3)s2)CC1`, the “% Inhibition” value was -2% and the Z score was 0.18.
For `CN(CC(=O)N1CCOCC1)[C@H]1CCc2ccccc2C1`, the “% Inhibition” value was -9% and the Z score was 0.75.
With `C[C@@H](Cc1cn(CCCn2ccnc2)nn1)c1ccccc1` the “% Inhibition” value was -2% and the Z score was 0.44.
`OC1CCN(CC2CCC3(CCCC3)O2)C12CCCC2` (configuration not stated) was tested, and the “% Inhibition” value was 1% and the Z score was -0.11.
For `CS(=O)(=O)N1CCN(C(=O)c2ccc3nsnc3c2)CC1`, the “% Inhibition” value was 10% and the Z score was -1.1.
For `Cc1n[nH]c(CNC(=O)N[C@H](c2ccc(F)c(Cl)c2)C2CC2)n1`, the “% Inhibition” value was -27% and the Z score was 2.85.
